{"source": "PubChem BioAssay (NCI)", "key": {"[1]": {"tested_on": "RXF 393 renal", "experiment": "NCI-60 one-dose screen, 48 h (100 = growth as untreated, 0 = no growth, -100 = all killed)", "conditions": "25 µM"}, "[2]": {"tested_on": "SF-268 CNS", "experiment": "NCI-60 one-dose screen, 48 h (100 = growth as untreated, 0 = no growth, -100 = all killed)", "conditions": "0.25 µM"}}, "note": "A structure can be active in one record and inactive in another.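 Method: cells in 96-well plates; compound added at one concentration; 48 h incubation; percent growth measured; values under 10 scored active.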 A number of entries come with more than one value. Only these are listed. An entry can have further records. For part of these data: This drug was run again and again over the years, at the concentration stated with the values; each value is one run. Signs of the kind (2×) give the number of equal values in this list. Some values that stand alone complete this part of the results. The source made the active and inactive calls."}
{"smiles": "COc1cccc2c1C(=O)c1c(O)c3c(c(O)c1C2=O)C[C@@](O)(C(=O)CO)C[C@@H]3OC1CC(N)C(O)C(C)O1", "note": "(stereo not given in full)", "values": [{"measurement": "growth", "setting": "[1]; runs of 1998", "value": "active: -83, -67.5, -86.1, -75.3, -63.5, -71.4, -70.2 (2×), -64.1, -73, -76.8, -87.3, -70.8, -91.2, -82.7, -84.8, -64.9, -60.4, -73.8, -87%"}, {"measurement": "growth", "setting": "[1]; runs of 1999", "value": "active: -89.6, -69.6, -80.3, -85.4, -86.7, -81.1, -95.5, -72.9, -87.7, -72.4, -93.7, -93.6, 2.84, -29.6, -76.9, -100, -79.4, -87.1%"}, {"measurement": "growth", "setting": "[1]; runs of 2000", "value": "active: -36.3, -100, -18.5, -66.6%"}, {"measurement": "growth", "setting": "[2]; runs of 2006", "value": "inactive: 28.9%"}, {"measurement": "growth", "setting": "[2]; runs of 2007", "value": "inactive: 34.9, 25, 10.7, 29.1, 23.6, 32.5, 30.4, 38.5, 33.8 (2×), 27.5, 26.8, 27.3, 39, 15, 14.8, 27.9, 26.3, 29.7, 15.6, 33.4, 24.7, 37.1, 46.4, 30.9, 39.4, 33.7, 27.2, 25.6, 21.2, 32.1, 30.2, 35.1, 43.9, 48.6, 21.7, 27.6, 23.3, 31.7, 32.6, 29.8, 36.9, 34.7% and active: 9.82%"}, {"measurement": "growth", "setting": "[2]; runs of 2008", "value": "inactive: 31.5, 24.4 (2×), 27.6, 28.4 (2×), 31.7, 37.7, 26.2 (3×), 33.8, 36.7, 39, 35.4, 33.9, 29.4, 16.8, 37.9, 30.6, 29, 12.8, 21, 23.5, 27.9, 15, 18.2, 96.5, 36.8, 20, 23.7, 28.9, 12.5, 18.8, 19.3, 18.4, 18, 18.7, 18.5, 35.1, 34.5, 31.8, 40.3, 34, 41.6, 25.6, 26, 25.1, 37.6, 22.2, 26.7% and active: -8.76%, 0.96%, 9.88%"}, {"measurement": "growth", "setting": "[2]; runs of 2009", "value": "inactive: 25.5, 24.6, 24.8 (2×), 29, 27.9, 25.4, 28.8, 31.4, 27.8 (2×), 35.8, 33.2 (3×), 27.7, 23.8, 30, 28.3, 35.9, 32.1 (2×), 33.5, 27.5, 20.1, 28.6 (2×), 23.7, 24.3, 26.7 (2×), 23.9, 42.9, 19.8, 11.2, 19, 18.1, 34.5, 29.6, 12.2, 14.9, 42.4, 36.6, 34.7, 27, 30.8, 21.5, 35.6, 55.4, 19.1, 41.8, 39.8, 54, 34.4, 36.7, 34, 34.3, 36.8, 37.3% and active: 8.68%, 5.96%"}, {"measurement": "growth", "setting": "[2]; runs of 2010", "value": "inactive: 45.1, 39.7, 27.8, 37 (2×), 30.3, 33.4 (2×), 43.4, 45, 43.6, 42.2, 32.5, 30.6 (2×), 32.2, 32.3 (2×), 40.3, 18.5, 30 (2×), 36.1, 23.9 (2×), 36.9, 27, 36, 30.9, 28.6, 28.1, 31.3, 20.6, 39.1, 23.8, 33.7, 25, 34.8, 23.2, 35.7, 29.7, 30.8, 35.2, 39.6, 33.5, 29.6, 32.9, 38.7, 34.3%"}, {"measurement": "growth", "setting": "[2]; runs of 2011", "value": "inactive: 30.3, 30.6, 32.6, 33.2 (3×), 40.3, 37.6 (3×), 35.4 (3×), 28.4 (2×), 33.7, 29.7, 33.6, 35.5, 34.8, 28.8, 40, 41.2, 39.6, 38.8, 35.9, 38.5, 41.9, 35.7, 36.8 (2×), 46.6, 35.8 (2×), 30, 37.5, 33.4, 34.9, 33.5, 32, 27.8, 36, 31.8, 33.3 (2×), 32.2, 30.5, 22.7, 42.5, 27.2, 42.2, 42, 35.1, 40.6, 41.5%"}, {"measurement": "growth", "setting": "[2]; runs of 2012", "value": "inactive: 39.8 (2×), 33.2 (2×), 28.1, 34.9, 30.4 (2×), 43.4, 45.5, 31.5, 35.5 (2×), 36.4, 27.9, 30.9, 30.6, 29.6, 32 (2×), 26.5, 29.8, 34.5, 37.5, 38.7, 35.6 (2×), 36.8, 39.4, 38.9, 33.4, 37.9, 37.8 (2×), 48.1, 35.4, 21.6, 42.3, 20.9, 32.3, 28.6, 36.6 (2×), 38.2, 45.6, 42.5, 46.4, 51.6, 44, 43.3, 45.3, 55.5, 47.9, 51.9, 49.7, 31, 37.4, 31.4 (3×), 29.5, 22.7, 36.9 (2×), 25.6, 27.3, 24%"}, {"measurement": "growth", "setting": "[2]; runs of 2013", "value": "inactive: 33.1 (2×), 25.4 (2×), 32 (2×), 37.5, 33.4 (3×), 34.7 (3×), 35.7 (2×), 28.3 (2×), 42.2, 36.4, 35.2, 33.7, 27 (2×), 34.5, 25.3, 33.8, 39, 33.9, 23.9, 34.6 (2×), 23.1, 36 (2×), 26.1, 41.6, 35.9, 27.7, 41.7, 38.5 (2×), 29.6 (2×), 35.5, 42.9, 36.3, 34.2, 43, 36.8, 31.8 (2×), 35.1 (2×), 28.8, 41.4, 30.3, 24.8, 37.3, 29.7 (2×), 37, 30.9, 38.8 (2×), 42.5, 28.9 (2×), 23.2, 15.5, 22.7, 28.6, 32.9, 26.2, 28.1, 38.3%"}, {"measurement": "growth", "setting": "[2]; runs of 2014", "value": "inactive: 33 (2×), 32 (2×), 31.2, 28.7 (2×), 29.6 (2×), 20.8, 30.3, 27.2, 24.1, 28.4, 31 (4×), 32.5, 41.2 (2×), 26.8 (2×), 19.2, 36.7, 32.7 (2×), 32.2 (2×), 38.8, 36.1 (2×), 41 (2×), 46.4, 37.1, 36.6, 36.9 (2×), 37.7, 34.6, 33.5, 34.2, 37.3 (3×), 36, 34.8, 28.6, 28.1 (2×), 28.3, 30.6, 28.9, 27.7, 32.1, 31.5, 29.7, 29.8, 27.6, 30.7, 26.3, 37.4, 27.5, 28.8, 38.5, 34.4, 36.4 (2×), 32.6, 31.7, 29.4, 30.9%"}, {"measurement": "growth", "setting": "[2]; runs of 2015", "value": "inactive: 33.6, 32.1 (2×), 26.8 (2×), 31.2 (3×), 27.3, 33.4 (2×), 34.9, 37.1 (2×), 35.6, 36.8, 35.2, 38.5, 41.6, 30.6 (2×), 27.6 (2×), 26.4, 27.5, 30.8, 36.6 (2×), 46.5, 32.5 (3×), 28.6 (2×), 32, 30, 30.9, 28.3, 32.9, 37.7, 35.7, 32.7 (2×), 34.6 (2×), 31.3, 28.9, 26.3, 28.4, 22.5, 26.1, 41.9, 30.3, 29.1, 31.8, 39.1, 39.4, 38.8, 40.1, 39.5, 36.1 (2×), 40.7, 44, 33, 30.7, 35.9, 32.6, 33.1, 33.3, 38.6, 42.5%"}, {"measurement": "growth", "setting": "[2]; runs of 2016", "value": "inactive: 33.3 (3×), 33.5, 32.3 (4×), 40.8 (2×), 34.9 (2×), 32.9, 33.4, 30.8, 36.1, 36.5, 26.2, 30.4 (2×), 28.4 (2×), 25.3, 23.4, 30.9, 35.9 (2×), 32, 24.1, 32.7, 27.2, 29.1 (2×), 29, 29.4, 31.8, 36.4 (2×), 34, 40.3, 34.5, 39.5 (2×), 33.2, 34.2, 37.1, 42, 41.1 (2×), 37.6, 31.4, 38.8, 43.2, 41, 39.8, 40.7, 37.4, 38.9 (4×), 44.9, 34.7, 41.4, 37.5, 43.5, 55.5, 55.2, 45.6, 44.4, 49.1, 45.5, 45, 38.3, 36, 33.1, 40.1, 37.9, 42.9, 43, 39.6%"}, {"measurement": "growth", "setting": "[2]; runs of 2017", "value": "inactive: 37.4, 36.6, 38.3, 31, 29.4, 27.2 (2×), 33.4, 32.9, 24.8 (2×), 26.2, 24.6, 24.7, 26.3 (2×), 29.1 (2×), 32.2, 33.8, 27.9 (2×), 30 (3×), 28.1, 26.5, 34.6, 28.7, 28.9, 33.2, 34.7, 31.3 (2×), 31.4 (2×), 35.1, 32.3 (2×), 33.3, 33.5, 37.3, 29.8 (3×), 31.7, 25.1, 27.8, 29.3, 29, 27.1, 26.4 (2×), 33, 25.2, 36, 35.9, 28.6, 32 (2×), 30.2, 34.8, 30.5, 34.2 (2×), 36.5, 27.6, 27.5, 31.5, 31.2, 30.9, 34%"}]}
